# From PubChem BioAssay AID588795 (National Center for Advancing Translational Sciences (NCATS), 2011)
# In all, about 390,000 compounds went through this assay and about 1,400 (0.36%) were called active. Inconclusive means that the source gave no clear call. Such entries were picked first, then a sample of the others. Calls come from the whole dose curve; as a rule, active = well fitted inhibition curve with a large enough effect; inconclusive = small, poorly fitted or top-dose-only effect; inactive = no such curve, though single readings can be large or run the other way. A potency beside an inconclusive call is a rough fit, not a confirmed value.
# Target: Flap endonuclease 1 (Homo sapiens) (UniProt P39748)
# Assay: qHTS Assay for the Inhibitors of Human Flap endonuclease 1 (FEN1). Note: nearly all actives have a fitted effect of over 65% in size.
# Details: Recombinant FEN1 flap cleavage, fluorescence, 15 min; series mostly up to 114 µM
# Outline: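 FEN1 at 10 nM, compound pretreatment for 15 min (room temperature), 50 nM final substrate to initiate; endpoint reads at 0 and 15 min; DMSO-only plates used as vehicle background.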
# Potency is the fitted concentration of half-maximal effect; tags give direction and shape of the fitted curve.
# UniProt P39748, sequence (P39748 whole entry, looked up): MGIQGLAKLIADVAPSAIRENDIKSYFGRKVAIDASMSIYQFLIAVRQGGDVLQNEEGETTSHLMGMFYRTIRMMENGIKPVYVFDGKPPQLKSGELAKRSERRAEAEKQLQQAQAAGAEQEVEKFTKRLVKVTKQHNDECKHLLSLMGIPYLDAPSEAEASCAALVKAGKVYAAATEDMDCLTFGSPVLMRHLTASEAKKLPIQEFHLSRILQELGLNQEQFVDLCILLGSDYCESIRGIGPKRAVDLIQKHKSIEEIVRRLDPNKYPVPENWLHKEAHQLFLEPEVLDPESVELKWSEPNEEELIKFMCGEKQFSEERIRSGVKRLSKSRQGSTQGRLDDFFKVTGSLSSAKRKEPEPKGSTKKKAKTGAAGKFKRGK
row,Structure (SMILES),Potency
1,O=C(/C=C/c1ccc(O)c([N+](=O)[O-])c1)c1ccc2ccccc2c1,"inconclusive: 89.1 µM [inhibitor, single point]"
2,CCOC(=O)C1(Cc2ccc(OC)cc2)CCN(C(=O)c2ccc3[nH]ccc3c2)CC1,"inconclusive: 89.1 µM [inhibitor, partial curve, poor fit]"
3,CCOC(=O)C1=C(O)/C(=C\c2ccc(CNS(=O)(=O)c3ccc(Br)cc3)o2)N=C1C,"inconclusive: 89.1 µM [inhibitor, single point]"
4,CC1=C(C(=O)Nc2ccccc2C)C(c2ccc[nH]2)n2ncnc2N1 (stereo unspecified),"inconclusive: 50.1 µM [inhibitor, partial curve]"
5,Cc1ccc(NC(=O)NCc2c(-n3cccc3)sc3c2CCCC3)c(Cl)c1,inactive
6,O=C(O)c1ccccc1NS(=O)(=O)c1ccc(NN=Cc2cccc(Cl)c2)c([N+](=O)[O-])c1,"inconclusive: 56.2 µM [inhibitor, partial curve]"
7,COc1ccc(NC(=O)CC(NCc2ccccn2)C(=O)O)cc1 (stereo unspecified),inactive
8,O=C(Nc1cccc(-c2nc3ccccc3[nH]2)c1)c1cccc(NC(=O)c2ccco2)c1,"inconclusive: 50.1 µM [inhibitor, partial curve]"
9,CCC1CCCCN1CCCNC(=O)c1ccc2c(c1)c(C)c(C)n2C (stereo unspecified),"inconclusive: 39.8 µM [inhibitor, partial curve, poor fit]"
10,CN(C)C(=O)c1ccc(NC(=O)c2cc(-c3ccco3)nc3ccccc23)cc1,"inconclusive: 89.1 µM [inhibitor, single point]"
11,CCOc1ccc(C(=O)Nc2cc(-c3nc4ccccc4[nH]3)ccc2Cl)cc1[N+](=O)[O-],"inconclusive: 44.7 µM [inhibitor, partial curve]"
12,O=C(CNC(=O)c1ccc(N2C(=O)c3ccccc3C2=O)cc1)OCC(=O)c1ccccc1,inactive
13,Cc1ccc(NC(=O)c2sc3nc[nH]c(=O)c3c2C)cc1C,inactive
14,Nc1nccnc1C(=O)OCC(=O)Nc1ccc2[nH]c(=O)[nH]c2c1,"inconclusive: 56.2 µM [inhibitor, partial curve]"
15,CCOc1ccc(S(=O)(=O)N2CCCCC2)cc1NC(=O)CN1C(=O)NC(C)(C2CC2)C1=O (stereo unspecified),"inconclusive: 39.8 µM [inhibitor, single point]"
16,CCN(N=O)c1ccc(/C=C2\C=Cc3ccccc32)cc1,"inconclusive: 44.7 µM [inhibitor, partial curve, poor fit]"
17,COc1ccc(CNC(=O)c2ccc(Cn3nc(C)cc3C)o2)cc1,inactive
18,CCOC(=O)c1c(Nc2cccc(O)c2)nnc(-c2ccccc2)c1-c1ccccc1,"inconclusive: 44.7 µM [inhibitor, partial curve, poor fit]"
19,Cc1cccc2nc(-c3cccc(NC(=O)c4ccc(Cl)cc4)c3)cn12,"inconclusive: 56.2 µM [inhibitor, partial curve]"
20,CN(C)CCNc1ncnc2c1sc1nc(N3CCCC3)c3c(c12)CC(C)(C)OC3,"inconclusive: 56.2 µM [inhibitor, partial curve]"
21,Cc1ccc(-c2cc(-c3ccco3)c3c(N)c(C(=O)NN)oc3n2)cc1,"inconclusive: 25.1 µM [inhibitor, full curve, poor fit]"
22,Cn1c(C(=O)N2CCc3ccccc3C2)cc2c(=O)n3ccccc3nc21,"inconclusive: 50.1 µM [inhibitor, partial curve]"

row,Structure (SMILES),Potency
1,Oc1cc(Nc2ccncc2)cc2cccnc12,"inconclusive: 10 µM [inhibitor, partial curve, poor fit]"
2,COc1ccc(-c2noc(CN3CCC(Cc4ccccc4)CC3)n2)cc1,"inconclusive: 79.4 µM [inhibitor, partial curve, poor fit]"
3,N#CCC(=O)Nc1ccc(C(=O)OCC(=O)NNC(=O)c2ccc(Cl)cc2)cc1,"inconclusive: 89.1 µM [inhibitor, partial curve, poor fit]"
4,O=C(O)c1[nH]c2ccccc2c1C(c1cc(Br)ccc1O)c1c(C(=O)O)[nH]c2ccccc12,"inconclusive: 89.1 µM [inhibitor, partial curve, poor fit]"
5,Nc1ccc(Cn2ccc3c4c(N)nc(N)nc4ccc32)cc1,active: 25.1 µM
6,CCCC[n+]1c(/C=C/c2ccc(N(C)C)cc2)sc2ccccc21,active: 50.1 µM
7,COc1cc2c(cc1NC(=O)C(C)NCc1ccccc1)oc1ccccc12 (stereo unspecified),"inconclusive: 56.2 µM [inhibitor, partial curve, poor fit]"
8,COc1cc(/C=C2\SC(=O)N(CC(=O)Nc3ccc(C)cc3)C2=O)cc(Cl)c1OCC(=O)O,"inconclusive: 12.6 µM [inhibitor, full curve]"
9,O=C(NCCCN1CCCC1)c1cc2c(Cl)nc3ccccc3c2s1,active: 39.8 µM
10,FC(F)(F)c1cccc(N2CCN(c3ccc4nnc(-c5ccccc5)n4n3)CC2)c1,"inconclusive: 17.8 µM [inhibitor, partial curve, poor fit]"
11,COc1ccc(-n2c(C)cc(/C=N/Nc3nnc(C)n3N)c2C)cc1,inactive
12,COc1ccc(NC(=O)c2sc3nc4c(cc3c2N)CN(C(C)C)CC4)c(OC)c1,"inconclusive: 56.2 µM [inhibitor, partial curve, poor fit]"
13,Nc1ccc(-c2nc3ccc(-c4nc5ccc(N)cc5[nH]4)cc3[nH]2)cc1,active: 35.5 µM
14,COc1ccc(S(=O)(=O)CC(=O)c2cc3cc(Br)ccc3oc2=O)cc1,"inconclusive: 22.4 µM [inhibitor, partial curve, poor fit]"
15,COc1ccc2c(c1)c(C(=O)OCCN(C)C)c(C)n2C,"inconclusive: 89.1 µM [inhibitor, partial curve, poor fit]"
16,C=CCc1ccc(OCC(O)CN2CCN(c3ccccc3)CC2)c(OC)c1 (stereo unspecified),"inconclusive: 10 µM [inhibitor, partial curve, poor fit]"
17,O=C(O)CN1C(=O)/C(=C\c2ccccc2OCc2ccc(Cl)cc2)SC1=S,"inconclusive: 6.31 µM [inhibitor, full curve]"
18,COc1cc(/C=N/N=C2/C(=O)Nc3ccccc32)cc(OC)c1O,"inconclusive: 50.1 µM [inhibitor, partial curve]"
19,COc1ccc(C=NNc2ccc(S(=O)(=O)Nc3ccccc3C(=O)O)cc2[N+](=O)[O-])c(OC)c1,active: 22.4 µM
20,COc1ccccc1NC(=O)CCn1cnc2ccccc2c1=O,inactive
21,CC1=NCC(C)c2c1[nH]c1ccccc21 (stereo unspecified),"inconclusive: 89.1 µM [inhibitor, partial curve, poor fit]"
22,NS(=O)(=O)c1ccc(CCNC(=O)c2cc3ccccc3s2)cc1,"inconclusive: 89.1 µM [inhibitor, single point]"

row,Structure (SMILES),Potency
1,COc1ccc(/C(O)=C2\C(=O)C(=O)N(Cc3ccco3)C2c2ccc(OC)cc2OC)cc1 (stereo unspecified),"inconclusive: 35.5 µM [inhibitor, partial curve, poor fit]"
2,Cc1ccc(S(=O)(=O)N2CCN(C(=O)COC(=O)c3ccc([N+](=O)[O-])o3)CC2)c(C)c1,"inconclusive: 20 µM [inhibitor, partial curve]"
3,CN(C)S(=O)(=O)c1cc(NC(=O)COC(=O)CC2CC3CCC2C3)ccc1Cl (stereo unspecified),"inconclusive: 56.2 µM [inhibitor, partial curve, poor fit]"
4,COc1ccc(CCNC(=O)C2=C(C)C(=O)OC23CCCCC3)c(OC)c1OC,inactive
5,O=C(Nc1cc(Cl)cc(Cl)c1)c1cc(S(=O)(=O)N2CCC3(CC2)OCCO3)ccc1F,inactive
6,O=C(CC1Sc2ccccc2NC1=O)OCc1cc(=O)oc2cc(O)ccc12 (stereo unspecified),"inconclusive: 79.4 µM [inhibitor, partial curve, poor fit]"
7,COc1cc(NC(C)CCCN)c2ncccc2c1 (stereo unspecified),"inconclusive: 44.7 µM [inhibitor, partial curve]"
8,Cc1csc(NC(=O)c2cncc(Br)c2)n1,inactive
9,COC1=C(N)C(=O)c2nc(-c3nc(C(=O)O)c(C)c(-c4ccc(OC)c(OC)c4O)c3N)ccc2C1=O,active: 3.98 µM
10,COc1ccc(CC2=CC(=O)c3ccccc3C2=O)cc1,"inconclusive: 28.2 µM [inhibitor, partial curve, poor fit]"
11,CSc1ccc(-c2cc(=O)c3ccccc3o2)cc1,"inconclusive: 79.4 µM [inhibitor, single point]"
12,CCOc1cc(/C=C2\NC(=O)NC2=O)cc([N+](=O)[O-])c1O,inactive
13,COC(=O)c1ccc(C2Nc3cccc4cccc(c34)N2)cc1,inactive
14,Cc1cc(C)c(S(=O)(=O)NCC(c2ccco2)S(=O)(=O)c2cccs2)c(C)c1 (stereo unspecified),inactive
15,COc1cc(OC)cc(C(=O)Oc2ccc(/C=N/Nc3nc4ccccc4s3)cc2OC)c1,"inconclusive: 56.2 µM [inhibitor, partial curve, poor fit]"
16,Cc1ccc2c(c1)cc(C(=O)NCc1ccccc1C)n2C,inactive
17,COc1ccc(OC)c2c1C(=O)c1ccccc1C2=O,"inconclusive: 15.8 µM [inhibitor, partial curve, poor fit]"
18,Cc1ccccc1NC(=O)NNC(=O)COc1ccc2ccccc2c1,inactive
19,Cc1nn(C2CCS(=O)(=O)C2)c(C)c1C=O (stereo unspecified),inactive
20,COc1ccccc1CNC(=O)C(CC(C)C)NC(=O)C1CCC(C)CC1 (stereo unspecified),inactive
21,O=C1/C(=C\c2cc(Br)cc(Br)c2O)SC(=S)N1Cc1ccccc1,"inconclusive: 44.7 µM [inhibitor, partial curve]"
22,CCNC(=O)N1CCN(/[N+]([O-])=N/Oc2ccc([N+](=O)[O-])cc2[N+](=O)[O-])CC1,"inconclusive: 5.62 µM [inhibitor, full curve, poor fit]"
